The campaign covered roughly 410,000 compounds. About 6,400 (1.6%) were called active. The shares of active, inactive and inconclusive entries below differ from those in the screen. Calls follow the shape of the dose curve; as a rule, active = well fitted inhibition curve with a large enough effect; inconclusive = small, poorly fitted or top-dose-only effect; inactive = no such curve, though single readings can be large or run the other way. No potency is given beside an inconclusive call; the fits are too rough.
The compounds below were run against Glucagon-like peptide 1 receptor (Homo sapiens) (UniProt P43220) (assay: qHTS of GLP-1 Receptor Inverse Agonists (Inhibition Mode)). Conditions: HEK293 GLP-1R CRE-luciferase, luminescence, 24 h, GLP-1R form is constitutively active; series mostly up to 38.3 µM.
UniProt P43220, sequence (P43220 whole entry, looked up): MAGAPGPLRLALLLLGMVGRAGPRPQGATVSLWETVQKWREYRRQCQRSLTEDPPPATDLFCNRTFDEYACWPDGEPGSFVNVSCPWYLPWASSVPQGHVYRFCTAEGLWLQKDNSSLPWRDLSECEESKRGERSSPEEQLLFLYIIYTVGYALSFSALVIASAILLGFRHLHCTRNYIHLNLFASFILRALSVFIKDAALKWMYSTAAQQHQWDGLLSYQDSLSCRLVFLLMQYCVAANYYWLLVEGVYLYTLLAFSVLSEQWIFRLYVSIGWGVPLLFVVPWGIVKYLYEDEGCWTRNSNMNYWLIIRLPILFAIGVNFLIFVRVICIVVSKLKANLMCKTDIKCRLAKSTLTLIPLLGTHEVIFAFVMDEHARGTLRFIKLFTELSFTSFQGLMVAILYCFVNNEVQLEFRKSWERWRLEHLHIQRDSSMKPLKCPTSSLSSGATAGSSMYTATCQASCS
Summary of the method: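 Stable HEK293 clone (constitutively active GLP-1R + cAMP-response luciferase); 200 cells/uL plated, 12 h pre-culture, compound 24 hr, 37 deg C/5% CO2; detection reagent 12 min RT; luminescence.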
Also: nearly all actives have a fitted effect of over 55% in size.
Potency is read from the fitted curve at half-maximal effect; tags tell the direction and shape of the fitted curve.

Row | SMILES | Potency
1 | Oc1ccc(C=NCC2COc3ccccc3O2)cc1 (stereo not given) | inconclusive [inhibitor, partial curve, poor fit]
2 | CC(C)c1ccc(NC(=O)C2C3C=CC4(O3)C2C(=O)N(CCCN2CCOCC2)C4C(=O)NC2CCCCC2)cc1 (stereo not given) | inconclusive [inhibitor, partial curve, poor fit]
3 | O=C(c1ccc([N+](=O)[O-])cc1)N1CCN=C1SCc1ccccc1 | inconclusive [inhibitor, single point]
4 | CCOC(=O)C1(C)CCN1C(=O)c1cc2ccccc2s1 (stereo not given) | inconclusive [inhibitor, single point]
5 | Cc1nc2nc(SCC(=O)N(C)Cc3ccccc3)nn2c(C)c1Cc1ccccc1Cl | inconclusive [inhibitor, single point]
6 | C#CCn1c(S(=O)(=O)Cc2ccccc2Cl)nc(-c2ccccc2)c1-c1ccccc1 | inconclusive [inhibitor, single point]
7 | CCC(CC)C(=O)Nc1ccc(Cl)c(Cl)c1 | inconclusive [inhibitor, partial curve, poor fit]
8 | Cc1c(Cl)cccc1-c1ccc(CNCCCSc2nnnn2C)o1 | inconclusive [inhibitor, single point]
9 | CCCCNC(=S)N/N=C/c1ccc(C#N)cc1 | inconclusive [inhibitor, single point]
10 | Cc1nnc(N2CCCC(C(=O)NCc3ccccc3)C2)c2nn(-c3ccccc3)c(C)c12 (stereo not given) | inactive
11 | COc1cc(NC(=S)NCCSc2ccc(C)cc2)cc(OC)c1 | inconclusive [inhibitor, partial curve, poor fit]
12 | Fc1ccc(-c2nc3ccc(Br)cn3c2Cc2ccccc2C(F)(F)F)cc1 | inconclusive [inhibitor, full curve, poor fit]
13 | CCN(CCNC(=O)Cn1c(=O)sc2ccccc21)c1ccccc1 | inconclusive [inhibitor, partial curve, poor fit]
14 | Cn1c(CNc2ccc(Br)cc2)nc2ccccc21 | inconclusive [inhibitor, partial curve, poor fit]
15 | COCCCNCCCOc1ccc(C(C)(C)c2ccccc2)cc1 | inconclusive [inhibitor, partial curve, poor fit]
16 | Clc1ccc(Cl)c(OCc2cc(-c3ccccc3Cl)on2)c1 | inactive
17 | COc1ccc(NC2=NC(=S)N(c3cccc(C)c3)C23CCCCC3)cc1 | inactive
18 | Cc1ccc(C(=O)CCC(=O)Nc2cccc(C)c2)cc1 | inconclusive [inhibitor, single point]
19 | CCN(CC)c1cc(C)c2cc(NC(=O)c3cccc(OC)c3OC)ccc2n1 | inconclusive [inhibitor, partial curve]
20 | Cc1cc(/C=C2/C(=N)N3C(c4ccccc4)=CSC3=NC2=O)c(C)n1-c1ccccc1 | inconclusive [inhibitor, partial curve, poor fit]

Row | SMILES | Potency
21 | Cc1cc(F)ccc1-c1cc(C(=O)NCC2CCCCC2)[nH]n1 | inconclusive [inhibitor, single point]
22 | CCOc1ccc(NC(=O)CN(C)C(=O)CSCc2ccc(C)cc2)cc1OCC | inconclusive [inhibitor, partial curve]
23 | COC(=O)c1sc2cccc(F)c2c1S(=O)(=O)N1CCN(c2cccc(OC)c2)CC1 | inconclusive [inhibitor, single point]
24 | COc1ccc2c(c1)c1ccc3c(c1n2C)C(=O)C=CC3=O | inactive
25 | CCC(O)c1nc2ccccc2n1CCc1ccccc1 (stereo not given) | inconclusive [inhibitor, partial curve, poor fit]
26 | COc1ccc(Nc2nc3ccccc3nc2NS(=O)(=O)c2ccc(C)cc2)c(OC)c1 | inactive
27 | COc1ccccc1/C=C/CN1CCCC(CCC(=O)NCc2ccc(F)c(F)c2)C1 (stereo not given) | inconclusive [inhibitor, partial curve, poor fit]
28 | CC1CCCN(S(=O)(=O)c2ccc(NC(=O)Cc3ccc(S(=O)(=O)N4CCOCC4)s3)cc2)C1 (stereo not given) | inconclusive [inhibitor, partial curve, poor fit]
29 | O=C(Nc1ccccc1)N1CCCC(c2nc(-c3ccc(F)cc3)no2)C1 (stereo not given) | inconclusive [inhibitor, partial curve, poor fit]
30 | Cc1ccc(CN(C(=O)c2cc3ccccc3oc2=O)C2CCS(=O)(=O)C2)cc1 (stereo not given) | inconclusive [inhibitor, partial curve, poor fit]
31 | O=C(N/N=C/c1ccc[nH]1)c1ccc(COc2cccc3cccnc23)cc1 | inconclusive [inhibitor, full curve, poor fit]
32 | CC(C)c1ccccc1NCC(=O)N1CCN(Cc2ccccc2)CC1 | inconclusive [inhibitor, single point]
33 | CCCCCc1c(-c2cccc(Br)c2)ncn1CCc1ccccc1OC | inconclusive [inhibitor, partial curve]
34 | O=c1c(-c2cccc3ccccc23)[n+]([O-])c2ccccc2n1O | inactive
35 | Cc1ccc2c(c1)N(C(=O)N1CCC(C(=O)NCc3cccc(Br)c3)CC1)CCO2 | inconclusive [inhibitor, single point]
36 | COc1ccc(O)c(C=Nc2cc(C)on2)c1 | inconclusive [inhibitor, single point]
37 | Cc1cc(-c2ccc(C)c(S(=O)(=O)Nc3cccc(C)n3)c2)on1 | inactive
38 | CN1/C(=C\C(=S)NC(=O)c2cccc(Br)c2)C(C)(C)c2ccccc21 | inconclusive [inhibitor, single point]
39 | O=C(NC(=S)Nc1ccc(S(=O)(=O)N2CCCC2)cc1)C1CC1 | inconclusive [inhibitor, single point]
40 | Cc1ccccc1-c1cc(C(=O)NCc2cccs2)n(CC2CC(c3cccnc3)=NO2)n1 (stereo not given) | inconclusive [inhibitor, single point]

Row | SMILES | Potency
41 | Cc1c(CC(=O)NCCC(C)C)c(=O)oc2cc3c(cc12)CCC(C)(C)O3 | inconclusive [inhibitor, full curve]
42 | COCCn1c(-c2ccccc2)csc1=Nc1cccnc1 | inconclusive [inhibitor, partial curve, poor fit]
43 | CN(CC(=O)Nc1ccc(Cl)cc1)C(=O)Cc1c(F)cccc1Cl | inconclusive [inhibitor, partial curve, poor fit]
44 | CCc1ccc(-n2nnc(-c3nsc(NC(=O)c4ccccc4Cl)n3)c2C)cc1 | inconclusive [inhibitor, partial curve, poor fit]
45 | Cn1cccc1Cc1nnc(SCC(=O)NC2CCCCC2)n1CCc1ccccc1 | inconclusive [inhibitor, partial curve, poor fit]
46 | COc1ccc(NC(=O)CN2C(=O)CSc3ccc(S(=O)(=O)N4CCC(C)CC4)cc32)cc1 | inconclusive [inhibitor, partial curve, poor fit]
47 | COc1cccc(Cn2cnc3c(NS(=O)(=O)c4ccc(Cl)cc4Cl)c(C)c(C)cc32)c1 | inconclusive [inhibitor, partial curve, poor fit]
48 | CC(C)(C)C(=O)Nc1ccc(C(=O)CN2C(=O)NC3(CCOc4ccccc43)C2=O)cc1 (stereo not given) | inconclusive [inhibitor, partial curve, poor fit]
49 | O=C(NC1CCCCC1)C(c1cccc2ccccc12)n1c(=O)c(-c2cc3ccccc3[nH]2)nc2ccccc21 (stereo not given) | inconclusive [inhibitor, full curve]
50 | O=C1C(=O)c2ccccc2C(O)=C1CCCCl | inconclusive [inhibitor, single point]
51 | O/N=C1/C2C3CC4C5C3C1C5C1(OCCO1)C42 (stereo not given) | inconclusive [inhibitor, full curve, poor fit]
52 | CCOc1ccc(NS(=O)(=O)c2ccc3ncsc3c2)cc1 | inconclusive [inhibitor, single point]
53 | O=S(=O)(/C=C/c1ccccc1)NC1CCCCCCC1 | inconclusive [inhibitor, single point]
54 | CC1(C)Cc2c(ccc3ccccc23)/C(=C/C(=O)N2CCCCC2)N1 | inconclusive [inhibitor, partial curve]
55 | COc1ccccc1CNC(=O)c1ccc(Cl)c(S(=O)(=O)N2CCCC2)c1 | inconclusive [inhibitor, single point]
56 | COc1ccc(CN2CC[C@H]3C=CCc4cccc(c43)C2)cc1 | inconclusive [inhibitor, partial curve, poor fit]
57 | COc1ccc(Cl)cc1C(=O)N(Cc1nc(-c2cccc(C)c2)no1)C(C)C | inconclusive [inhibitor, partial curve, poor fit]
58 | Cc1ccc2ccc(C(Nc3ccccc3)c3ccc(C(C)C)cc3)c(O)c2n1 (stereo not given) | active: 3.55 µM
59 | C/C(=N\Nc1cccc([N+](=O)[O-])c1)c1ccccc1O | inconclusive [inhibitor, partial curve, poor fit]
60 | CCOc1ccc(NC(=NCc2ccc3c(c2)OCO3)SC2CC(=O)N(c3ccc(C(=O)O)cc3)C2=O)cc1 (stereo not given) | inconclusive [inhibitor, single point]

Source: PubChem BioAssay AID624417 (National Center for Advancing Translational Sciences (NCATS), 2012)
